Measured values as given in the supplement of paper PMC11417369.
± gives the standard deviation of the averaged measurements. The list shows a part of the results.

Each sequence was assayed on PfAP2-EXP AP2 domain (GST-tagged) (assay: gcPBM binding intensity (ln(normalized median fluorescence intensity)); higher = stronger DNA binding).
Outline: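 For binding intensity, the highest Masliner-normalised natural-log median intensity across replicate spots of either probe orientation was taken. Protein bound to the array was stained with Alexa488 anti-GST antibody and scanned at 488 nm. The protein, GST-tagged P. falciparum DNA-binding domains from E. coli at about 25 μg on average, had been applied for 1 h to an Agilent 4 × 180k array of primer-extended double-stranded 36-bp intergenic genomic probes and negative controls.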

Sequence | gcPBM binding intensity (ln)
TTTTATTTTTGTTGGTCCCTCATTTAAGTTAATAAA [TGCATGCA_negctrl_site465] | 8.69 ± 0.33
ATATATACATACATATGTACATATGTAGATATATTT [XGTACX_site1230] | 8.33 ± 0.31
TACGTTTTAAAACACACACACAAAAAAAAAAAAAAA [CACACA_site3876] | 8.23 ± 0.47
ATTATGAAATATCGTGCACACACGAATAATATAAGA [CACACA_site1294] | 8.735 ± 0.007
TATTTGTTTAAATTCACACACGTATATATATTTATA [CACACA_site5651] | 8.62 ± 0.38
ATTTTTTTTGTTTATTCTTATGTGGTTATTAAATTA [CACACA_negctrl_site1000] | 8.9 ± 0.64
AAAAGAGAAATGGGCACACACACACCCATTATATAT [CACACA_site1530] | 8.49 ± 0.49
ATTTTTATATATATCTGTACTAAAAAAAAAAAAAAA [XGTACX_site5258] | 8.19 ± 0.33
AGAAGTAAAAAAATAGCACACACACTAATACCAACA [CACACA_site8354] | 8.93 ± 0.62
AAACAAAAAAGAAAAACAATGAGATAAAGAAGAGAA [CACACA_negctrl_site804] | 9.07 ± 0.77
TTTAATTATTTATTTTGTACATATATTATATATATA [XGTACX_site5760] | 8.66 ± 0.3
AAAAGAAAAATATTCACACATATAAATAATATATAA [CACACA_site4201] | 8.24 ± 0.33
TTATATTAATATTATATTTAAAAATAAAATATAAAT [TGCATGCA_negctrl_site79] | 7.66 ± 0.33
TATTTATATATTTGTTGTACGTATTTATATATTCTT [XGTACX_site3622] | 8.87 ± 0.39
AAATAAATAAATAGAGTGCATATATATATATATTTT | 8.49 ± 0.16
ATATACAAAGGATTAACACACATATTATTATAGATA [CACACA_site6966] | 8.47 ± 0.47
CTTTTTATTTATCATACACACACAGAAAAAAAAAAA [CACACA_site7935] | 8.6 ± 0.46
ATAGGAGAAAAAGAATGTACGTATGATGTTGAAAAT [XGTACX_site7779] | 9.23 ± 0.27
ATTATGCACAGACACACACACACACTACTAAAAAAT [CACACA_site7252] | 8.91 ± 0.21
AATTTTTAGAAGAACACACACATATATATTATGACC [CACACA_site246] | 8.71 ± 0.49
AAGCATTTTTTTTAAAGCCTGTTCATCATCCTTACC [CACACA_negctrl_site129] | 8.57 ± 0.45
AAAAAAAATAAAAATATATATATATATATATAAATA [GTGCAC_negctrl_site676] | 8.44 ± 0.27

Sequence | gcPBM binding intensity (ln)
TACATTATAAATATTACACACTTTATAAAATAATAA [CACACA_site6096] | 8.07 ± 0.36
ACCGTGGGAGGACACACACACACACGCACATATATA [CACACA_site6289] | 8.52 ± 0.33
AAATAACTTTTAAATACACACGTAAAATATATTGTG [CACACA_site9085] | 8.44 ± 0.42
ATAATATTTTTATGTACACACCTTAATCCTTAAAAG [CACACA_site5881] | 8.54 ± 0.35
TTAACCACTAAAAGTACACACATATATACATATATA [CACACA_site3912] | 8.49 ± 0.13
TCCTTTTTTTTTTATGCACACACAATTATACATTCC [CACACA_site9287] | 9.06 ± 0.4
TCTATTAATTAATATACACACATTATATATATATAT [CACACA_site8815] | 9.36 ± 1.2
AATATATATATATATATATTTTTGTTAGAATATGGA [CACACA_negctrl_site212] | 8.32 ± 0.26
AAATATTACATACACGCACACATTAAAATATTTAAA [CACACA_site5440] | 8.62 ± 0.44
ATGTACCTTCAAACTACACACAAATGAAGGAACACA [CACACA_site3330] | 8.71 ± 0.5
ATCTAATAAAAATACACACACATATGGTTTGTGAAT [CACACA_site6962] | 8.21 ± 0.43
ATATAGAATGTTTACACACGCAATAAATATATATAT [CACACA_site217] | 9.27 ± 0.13
ATGGTATAAAAAAATACACACTTATTTATATTCTTA [CACACA_site6370] | 8.23 ± 0.29
GCGTATCATTTTAAAACACACAGGATTTTATAAGTA [CACACA_site1225] | 8.4 ± 0.4
AAAAATAACATATAAACACACATATAGATTTATATA [CACACA_site7738] | 8.4 ± 0.38
TTAAAAAATCACAACACACACACACGCAAAAAAAAA [CACACA_site6793] | 8.7 ± 0.57
TGTAGTCTGGAGAAGAGTACACAGTATCTGGTAGCT [XGTACX_site2036] | 8.5 ± 0.35
TTACAAAACCGATGTTGTACATTCAATAGATAATGT [XGTACX_site3806] | 8.44 ± 0.32
TAGTTGTGAGTTACATGTACATGTATTTATTTTTTA [XGTACX_site7088] | 8.88 ± 0.47
ATATACCATATGCATGGTACACATTTACAACAAAAA [XGTACX_site3142] | 8.44 ± 0.31
AATGTATAAAAGTTTTGTACATATTCTCACACATAT [XGTACX_site965] | 8.53 ± 0.46
TTTATTAAATAAAGCACACACAACAACTTTTCACAA [CACACA_site4132] | 8.78 ± 0.35

Sequence | gcPBM binding intensity (ln)
GATAACAATATGTGTACACATTTATATCTCCACATA [CACACA_site5442] | 8.87 ± 0.14
ATAACGTAAACAATGTGGACACATACATAAATATAT [XGTACX_site707] | 8.71 ± 0.35
TAATACTTAAAATGTTGTACATAATAATTTTATATT [XGTACX_site5403] | 8.31 ± 0.16
CATATGCGTCTTGCCTTGCACACTTTTATGAAAAAA [CACACA_site2055] | 8.88 ± 0.48
TATAACAAGTAATGGTGTACATTATATTATGTAATA [XGTACX_site2761] | 8.45 ± 0.27
TATATATATATATATACATGCATTTCTCATGTACAT [TGCATGCA_site621] | 10.2 ± 0.33
GTCATCATAATCTATTGTACAAAAATTTATACAGAT [XGTACX_site1059] | 8.66 ± 0.26
ATAAATACATTAAAATGTACATAAAAATATTACTGG [XGTACX_site1484] | 8.42 ± 0.41
TACATTAAACGAATAGTGCAAGAAGTATTCGTATAA [GTGCAC_site9939] | 8.78 ± 0.13
TATAAAAATAAGTATACACACAAAATGCGTAACTTT [CACACA_site1295] | 8.12 ± 0.37
AAAAAAAAAAAAAACACACACACACGCAAATACATA [CACACA_site6474] | 8.68 ± 0.46
TCCTTAAATATAAAGGTGCTATGCAGACCTTATGTT [GTGCAC_site9472] | 8.1 ± 0.25
TTATAAATTCAATGTACTACACAAAATGAATTTAAT [XGTACX_site6683] | 8.43 ± 0.28
TACAGACATAGACACACACACACGCATAAAAAAAAA [CACACA_site6820] | 8.67 ± 0.41
ATATAAGTACGGCATGCATGCACATTTTTTTATTCC [TGCATGCA_site101] | 10.3 ± 0.23
TTCCTATAAAAAAACACACACATATAAATATAAATA [CACACA_site7154] | 8.69 ± 0.4
TGTGCTCGCTATTACACACTCATTGGGATAAAATTG [CACACA_site2029] | 8.61 ± 0.44
TACATAAACATTTATACACACATTATATATACATAT [CACACA_site8028] | 8.6 ± 0.41
TGGCTTATTCAGAAATGTACACATATAAATATATAT [XGTACX_site3765] | 8.6 ± 0.47
TGAATAAATAAGATACGTACACACATATACAAAATA [XGTACX_site7758] | 8.79 ± 0.39
TTTCTTTTAATTATCCGTACACAAACAATAAAATAA [XGTACX_site7841] | 8.57 ± 0.33
AAAATAATATATGTATGTACACAATTATTTATAAGT [XGTACX_site7267] | 8.65 ± 0.47

Sequence | gcPBM binding intensity (ln)
TACTTCTTTTTTATTTATTTTACTTTTTATTCTGTA [CACACA_negctrl_site772] | 8.98 ± 0.54
GCTTATGCTCAATATTGTACTTTTTTTATTTATTCA [XGTACX_site8863] | 8.98 ± 0.44
ATTTAATTTTTTTTTAAACACACATTTTTTTATTTA [CACACA_site8880] | 8.46 ± 0.31
TTCAATTATATTCTTTGTACGAATCTTCTATAAATT [XGTACX_site4346] | 8.86 ± 0.48
AAAATTATTAAATATGTACACACGTACATTTTATAA [CACACA_site8750] | 8.12 ± 0.32
TATAAATATGTGTATACACACCTGATAAAGGTATAT [CACACA_site7283] | 8.67 ± 0.44
AAATAAATAATAAATAAATAAATAAAATACCAAATA [GTGCAC_negctrl_site620] | 8.72 ± 0.28
ATATATATATATATATGTACATATACACATGTGTGC [XGTACX_site168] | 10.1 ± 0.33
TTATGTAGTATAATGAGTACTAAATATAGATATGTT [XGTACX_site6335] | 8.51 ± 0.28
AATTACTTAAATTATTGTACCCTAATGTTAATTTCA [XGTACX_site825] | 8.44 ± 0.35
AATATTATAAATGATACACACTTAAAATACAGACAC [CACACA_site8868] | 8.81 ± 0.42
TTCATAAAAAATGTAGTGCATTGAATAAAATTACAT [GTGCAC_site9393] | 8.39 ± 0.13
TTTTATATCTACCTTTGTACATATTTATTTTTTTTA [XGTACX_site7872] | 8.82 ± 0.31
TAAATTTTTTTTTTTTGTACACAAAAATATAATATT [XGTACX_site8151] | 8.18 ± 0.38
TTAATTTTGGTAAATGCATGTAATTAAAAATAAAAA [TGCATGCA_site234] | 9.03 ± 0.51
ATATTGAAATTAAAAAAATATATGAACAAATGATGA [CACACA_negctrl_site602] | 8.88 ± 0.79
TATTTTGAAATGGAAAGGATATAGAACTTAAACAAA [CACACA_negctrl_site1530] | 8.6 ± 0.29
AACATACGACAATACGCACACATATAAGTACATATT [CACACA_site8584] | 8.61 ± 0.29
TTTATAAAAAGCATAACACACACATGTCAATATATA [CACACA_site8286] | 8.67 ± 0.33
ATACATTCAAAATATACACACATATATCTATAATAT [CACACA_site6576] | 8.39 ± 0.4
TTTCTTTAGTAGAATGTAAAAAATATAATCTTCTTA [TGCATGCA_negctrl_site298] | 7.79 ± 0.52
TACTTTTTTTTTTTTTTTTTTTTTTTTTCCCTTTTT [CACACA_negctrl_site761] | 8.22 ± 0.52
